The chains are these.
B1: PhoQ; a variant is named by its letters at X, in order, P23837 (parent)
chain: MKKLLRLFFPLSLRVRFLLATAAVVLVLSLAYGMVALIGYSVSFDKTTFRLLRGESNLFYTLAKWENNKLHVELPENIDKQSPTMTLIYDENGQLLWAQRDVPWLMKMIQPDWLKSNGFHEIEADVNDTSLLLSGDHSIQQQLQEVREDDDDAEMTHSVAVNVYPATSRMPKLTIVVVDTIPVELKSSYMVWSWFIYVLSANLLLVIPLLWVAAWWSLRPIEALAKEVRELEEHNRELLNPATTRELTSLVRNLNRLLKSERERYDKYRTTLTDLTHSLKTPLXXLQXXLRSLRSEKMSVSDAEPVMLEQISRISQQIGYYLHRASMRGGTLLSRELHPVAPLLDNLTSALNKVYQRKGVNISLDISPEISFVGEQNDFVEVMGNVLDNACKYCLEFVEISARQTDEHLYIVVEDDGPGIPLSKREVIFDRGQRVDTLRPGQGVGLAVAREITEQYEGKIVAGESMLGGARMEVIFGRQHSAPKDE

This is one part of the list. Some results are limits rather than exact numbers.

Variants of B1 are the subject of this experiment. The experiment can be described thus: enrichment ratio after two sorts for PhoP signalling (ratio (wild type AVST 3.29)); higher = more functional. Conditions: with PhoP (E. coli).
On to TGAC, for which the enrichment ratio is 11.4.

With MDQC, the enrichment ratio was no more than 0.25.

On to NANN, for which the enrichment ratio is no more than 0.25.

In the case of FTGG, the enrichment ratio was no more than 0.25.

On to YGWK, for which the enrichment ratio was no more than 0.25.

Consider EDEA, for which the enrichment ratio is no more than 0.25.

For the variant KAHC, the enrichment ratio is no more than 0.25.

For the variant CAHL, the enrichment ratio was no more than 0.25.

Turning to KMRV, the enrichment ratio is no more than 0.25.

For AFEI, the enrichment ratio is no more than 0.25.

Regarding SERA, the enrichment ratio was no more than 0.25.

Consider LYWT, for which the enrichment ratio is no more than 0.25.

Consider GTTD, for which the enrichment ratio is no more than 0.25.

Turning to NYHN, the enrichment ratio is no more than 0.25.

Turning to PNGQ, the enrichment ratio is no more than 0.25.

Take HFNV: the enrichment ratio was no more than 0.25.

Take VFKE: the enrichment ratio was no more than 0.25.

KEDH: the enrichment ratio is no more than 0.25.

For the variant YRHP, the enrichment ratio is no more than 0.25.

Take AQDV: the enrichment ratio was no more than 0.25.

In the case of GSRG, the enrichment ratio was no more than 0.25.

On to THAA, for which the enrichment ratio was no more than 0.25.

With TCTF, the enrichment ratio amounted to 12.4.

In the case of VQHG, the enrichment ratio was no more than 0.25.

Take RGAM: the enrichment ratio was no more than 0.25.

GTYR: the enrichment ratio is no more than 0.25.

Take YTAH: the enrichment ratio is no more than 0.25.

Regarding PGGG, the enrichment ratio is no more than 0.25.

With PGWN, the enrichment ratio was no more than 0.25.

As to AAMG, the enrichment ratio was determined as 9.84.

Consider NAQP, for which the enrichment ratio is no more than 0.25.

For YAVR, the enrichment ratio was no more than 0.25.

For FIRW, the enrichment ratio was no more than 0.25.

In the case of NLTS, the enrichment ratio is no more than 0.25.

DNQW: the enrichment ratio was no more than 0.25.

On to WDNW, for which the enrichment ratio was no more than 0.25.

For YEHT, the enrichment ratio was no more than 0.25.

On to KDGL, for which the enrichment ratio is no more than 0.25.

Turning to FCVW, the enrichment ratio is no more than 0.25.

As for HQCP, the enrichment ratio was no more than 0.25.

Take QPVR: the enrichment ratio is no more than 0.25.

Take PTII: the enrichment ratio was no more than 0.25.

Regarding QNKW, the enrichment ratio is no more than 0.25.

On to QSNT, for which the enrichment ratio is no more than 0.25.

On to NNRC, for which the enrichment ratio is no more than 0.25.

On to GNKW, for which the enrichment ratio was no more than 0.25.

For WMFI, the enrichment ratio was no more than 0.25.

Regarding ERVV, the enrichment ratio is no more than 0.25.

Take FQTG: the enrichment ratio is no more than 0.25.

On to ISTI, for which the enrichment ratio was found to be 0.31.

As to RAVA, the enrichment ratio is no more than 0.25.

As to PIVE, the enrichment ratio is no more than 0.25.

In the case of DGPK, the enrichment ratio is no more than 0.25.

On to SLKY, for which the enrichment ratio was no more than 0.25.

In the case of YQNG, the enrichment ratio was no more than 0.25.

On to RHRM, for which the enrichment ratio is no more than 0.25.

For HTSE, the enrichment ratio stood at 4.07.

Turning to YSRF, the enrichment ratio was no more than 0.25.

Take SVRD: the enrichment ratio was no more than 0.25.

Take VPRQ: the enrichment ratio was no more than 0.25.

On to WPTM, for which the enrichment ratio is no more than 0.25.

For the variant TTSM, the enrichment ratio was found to be 14.8.

For the variant RLAV, the enrichment ratio was no more than 0.25.

For WMKG, the enrichment ratio was no more than 0.25.

As for FWDI, the enrichment ratio is no more than 0.25.

Regarding TGSR, the enrichment ratio was no more than 0.25.

Regarding YDKP, the enrichment ratio is no more than 0.25.

Regarding QERR, the enrichment ratio was no more than 0.25.

Consider VQSP, for which the enrichment ratio is no more than 0.25.

As to KINN, the enrichment ratio is no more than 0.25.

In the case of NVCS, the enrichment ratio is no more than 0.25.

Turning to WYSK, the enrichment ratio is no more than 0.25.

MACG: the enrichment ratio is no more than 0.25.

With PQQC, the enrichment ratio is no more than 0.25.

Consider LWSS, for which the enrichment ratio is no more than 0.25.

NKHY: the enrichment ratio is no more than 0.25.

Take HNHI: the enrichment ratio was no more than 0.25.

In the case of FWEM, the enrichment ratio was no more than 0.25.

For ALMH, the enrichment ratio came out at 2.13.

For TDWT, the enrichment ratio came out at 25.1.

As for DTFN, the enrichment ratio is no more than 0.25.

Turning to WEPI, the enrichment ratio is no more than 0.25.

For the variant RTTG, the enrichment ratio was no more than 0.25.

Consider SVIW, for which the enrichment ratio is no more than 0.25.

As for IAAY, the enrichment ratio was no more than 0.25.

DWLS: the enrichment ratio is no more than 0.25.

For the variant RQHY, the enrichment ratio is no more than 0.25.

Turning to RTGI, the enrichment ratio was no more than 0.25.

On to MRRR, for which the enrichment ratio was no more than 0.25.

On to PRMF, for which the enrichment ratio was no more than 0.25.

Turning to MPCR, the enrichment ratio was no more than 0.25.

In the case of IAWR, the enrichment ratio is no more than 0.25.

With NLQG, the enrichment ratio is no more than 0.25.

On to KFFA, for which the enrichment ratio was no more than 0.25.

For the variant GWTA, the enrichment ratio was no more than 0.25.

As to IKID, the enrichment ratio was no more than 0.25.

Regarding TCQN, the enrichment ratio amounted to 23.

As to YKCC, the enrichment ratio is no more than 0.25.

HNTT: the enrichment ratio is no more than 0.25.

As to YMVM, the enrichment ratio was no more than 0.25.

In the case of RVHA, the enrichment ratio was no more than 0.25.

For the variant SQHG, the enrichment ratio was no more than 0.25.

Regarding PYNA, the enrichment ratio is no more than 0.25.

As for WHLW, the enrichment ratio was no more than 0.25.

Consider SFAE, for which the enrichment ratio was no more than 0.25.

Take LEHM: the enrichment ratio was no more than 0.25.

As for ICCE, the enrichment ratio was no more than 0.25.

As for WGFV, the enrichment ratio is no more than 0.25.

Turning to MMMM, the enrichment ratio is no more than 0.25.

Regarding KNHR, the enrichment ratio was no more than 0.25.

In the case of SPCT, the enrichment ratio is no more than 0.25.

Regarding SHLM, the enrichment ratio worked out at 19.3.

For the variant FDDY, the enrichment ratio is no more than 0.25.

In the case of YHFE, the enrichment ratio is no more than 0.25.

As to EGHS, the enrichment ratio was no more than 0.25.

As for NNHV, the enrichment ratio was no more than 0.25.

As to QMFM, the enrichment ratio was no more than 0.25.

Turning to LTSD, the enrichment ratio was no more than 0.25.

EDLH: the enrichment ratio was no more than 0.25.

For RDTY, the enrichment ratio was no more than 0.25.

For the variant YLNH, the enrichment ratio is no more than 0.25.

Turning to KPGT, the enrichment ratio is no more than 0.25.

As to GSEK, the enrichment ratio was no more than 0.25.

Regarding NNGW, the enrichment ratio is no more than 0.25.

Take PLWY: the enrichment ratio was no more than 0.25.

As for FCLP, the enrichment ratio is no more than 0.25.

Turning to KPVL, the enrichment ratio is no more than 0.25.

For FFPP, the enrichment ratio was no more than 0.25.

As for TRNI, the enrichment ratio is no more than 0.25.

Turning to YWTM, the enrichment ratio was no more than 0.25.

On to WCAH, for which the enrichment ratio was no more than 0.25.

With WMLQ, the enrichment ratio is no more than 0.25.

On to VSPT, for which the enrichment ratio is no more than 0.25.

Turning to TTPE, the enrichment ratio is no more than 0.25.

Turning to RLCK, the enrichment ratio is no more than 0.25.

KNFT: the enrichment ratio was no more than 0.25.

As to GFGL, the enrichment ratio was no more than 0.25.

Take PWLQ: the enrichment ratio is no more than 0.25.

In the case of RPWH, the enrichment ratio was no more than 0.25.

As to DNPI, the enrichment ratio is no more than 0.25.

Regarding AAVP, the enrichment ratio was no more than 0.25.

Take YGFC: the enrichment ratio is no more than 0.25.

For STWV, the enrichment ratio is no more than 0.25.

Consider GAFN, for which the enrichment ratio is no more than 0.25.

On to GMAT, for which the enrichment ratio was no more than 0.25.

With RWYW, the enrichment ratio was no more than 0.25.

LFNS: the enrichment ratio was no more than 0.25.

Take FTTL: the enrichment ratio stood at 3.67.

As to EHLD, the enrichment ratio is no more than 0.25.

Take LGTE: the enrichment ratio is no more than 0.25.

Consider DNEV, for which the enrichment ratio is no more than 0.25.

LYKF: the enrichment ratio is no more than 0.25.

With DTNV, the enrichment ratio is no more than 0.25.

The record behind these values is a collection of fitness landscapes (doi:10.1126/science.1257360).
